The supplement of paper PMC11417369
± gives the standard deviation of the averaged measurements. The list shows a part of the results.

These sequences were tested on PfAP2-I AP2 domain 3 (GST-tagged) (assay: gcPBM binding intensity (ln(normalized median fluorescence intensity)); higher = stronger DNA binding).
Outline: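 In this array assay, P. falciparum DNA-binding domains with a GST tag, expressed in E. coli, were applied for 1 h to primer-extended double-stranded 36-bp intergenic genomic probes and negative controls on an Agilent 4 × 180k array. Bound protein was visualised with Alexa488 anti-GST antibody at 488 nm. Binding intensity is the highest Masliner-normalised natural-log median intensity across replicate spots of either probe orientation.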

Sequence	gcPBM binding intensity (ln)
GAAATAAATATATATGCATGTACTTTAATATTATTA [TGCATGCA_site904]	7.94 ± 0.71
TAAATATATTCATAAAGTACAAAGCAAAATTGTCTA [XGTACX_site7274]	7.63 ± 0.57
GTGCTTATTTATACATGTACAAATGATAAGTTTGTA [XGTACX_site169]	9.115 ± 0.049
AGGTGATTGATATATACACACATACCTATATTTATA [CACACA_site7348]	7.67 ± 0.5
TGTTTATTTAATAATATTTTTTTTTTTATTATATTA [XGTACX_negctrl_site56]	7.2 ± 0.66
TTATTAAAATATTCTAGTACATATAAAAGGAGAACA [XGTACX_site4374]	7.99 ± 0.2
AATGGAAAAAAAAAAATAAATACAAATAAATACAAA [GTGCAC_negctrl_site407]	7.58 ± 0.79
TATTTTTTTCTTACTACACACATATATATGCTTTCC [CACACA_site4058]	8.12 ± 0.58
TTATATTATACATACACACCCATATAACATGTTTTT [CACACA_site6539]	7.92 ± 0.73
TCATTAATATTTCATAGTACAATTTTGTCTAATTGT [XGTACX_site6720]	7.51 ± 0.37
AAAAAATAATAATAATGTACAAATAAAATAAAAACA [XGTACX_site6568]	7.94 ± 0.65
AAGGAATATGTATATACACACAGGTACATATATATA [CACACA_site441]	8.16 ± 0.71
ATATATTTTTACCATACACACATATAATAAATATAT [CACACA_site3722]	7.96 ± 1
TCGTGTGAAAATATTACACACATTTACTATAGTATC [CACACA_site7590]	8.19 ± 0.72
ATAAAAATTGAAACATGTACACATATTCATTTTATA [XGTACX_site7968]	7.62 ± 0.24
ATAATAATATTGTGTACACAATAATTTGTCAAATCA [CACACA_site6019]	8.16 ± 0.13
ACATATACAAGACACACACACAACGTTTTAATAAAT [CACACA_site7017]	8.12 ± 0.46
AAAAAAAAAAAAAAATGTACATATATATATATATAT [XGTACX_site876]	9.45 ± 0.2
ATCATGTTATATATGTGTACATATATATGATATAAT [XGTACX_site991]	7.71 ± 0.28

Sequence	gcPBM binding intensity (ln)
TGAACAATGTATAATTGTACGCAACGAAAATAAAAA [XGTACX_site1559]	8.09 ± 0.68
ATTATAAATTAAAATACACACATATATACCTAATAT [CACACA_site5541]	7.67 ± 0.52
AGAATAAAAATACAAGCACACATGTATGAAATATAT [CACACA_site3213]	7.93 ± 0.72
ATATATAATTACACAAATAAAAAAATAAAATGAAAT [CACACA_negctrl_site1513]	7.78 ± 0.6
AAAAAAAGAAAAATTGCACACACTTATAAAAATATA [CACACA_site4014]	8.13 ± 0.26
TTTTGTTATGAGAGGGTGCTAATATTTGGATATAAA	9.72 ± 0.4
AAAAAAAAAAAAAGTAGTACATAATATGTTCCTCCT [XGTACX_site8356]	8 ± 0.3
CCCCCCGTGTTATATACACACATAATCAAATAAAAT [CACACA_site4111]	10.9 ± 0.4
TCTTATTAAAATATTTATATAGGTAATCACAATATT [GTGCAC_negctrl_site568]	7.53 ± 0.57
AGAAATAAGAAATATACACACATATATATATATATA [CACACA_site2808]	9.49 ± 0.49
TATAAAATAAGACATGCATGTTATACATATATATAT [TGCATGCA_site314]	9.275 ± 0.035
TACCCATGCATTTTTGCACACACATATATATATAAA [CACACA_site1429]	9.61 ± 0.028
AGACAGCGCACAAACACACAAACACCCACCCACATA [CACACA_site451]	9.29 ± 0.11
TACTTACATATAATAACACACAAGAAAAAAATAAAA [CACACA_site1033]	8.02 ± 0.61
ATTTTTGTACACTTCTTTTTTTTTTTTCTTTTATGT [CACACA_negctrl_site1323]	8.25 ± 0.44
AAAAAAAAAAATAAAGAAATCAAAATTGATGAATAA [GTGCAC_negctrl_site692]	7.32 ± 0.55
TATATATATTTATGCTGTACCAAATAAGAATAGAAA [XGTACX_site7731]	7.91 ± 0.37
ATATGAACAAAATAAATCTCTTCAAAAATAATGTTC [GTGCAC_negctrl_site2]	7.32 ± 0.56
TAAATGATTGCATAATGTACATATAATTTTTTTTTT [XGTACX_site1988]	7.85 ± 0.34

Sequence	gcPBM binding intensity (ln)
TGTGTAAACATATTCACACACATAAATTCGCATATA [CACACA_site6961]	7.62 ± 0.4
TATATAAAAAATAAATGTACACATGTAATAATAAAA [XGTACX_site2640]	8.23 ± 0.35
TATAAATATACACCCACACACATATATATATATATA [CACACA_site3745]	9.31 ± 0.43
AGCACAAGCACAAGCACACATTTATATATAAATACA [CACACA_site4642]	8.11 ± 0.47
ACAAAATATACAAAATGTACAAAATTTACAAAATAT [XGTACX_site6466]	7.68 ± 0.64
GTATATTTTAATATGACACACATATTATATATATAT [CACACA_site2483]	8.905 ± 0.035
AATCAATTAATATTAGCATAAAATTTTATTATTTTG [XGTACX_negctrl_site479]	7.46 ± 0.71
TGACATAAAAAATATACACACTATAATATATATACT [CACACA_site4898]	7.58 ± 0.49
TGTATCCATATTTGTTCACACACACCCATATTTATA [CACACA_site9190]	8.12 ± 0.57
ATAATATGTATGGTCACACAGACAAGGAAAGAATAA [CACACA_site5164]	8.15 ± 0.72
ATTGTTATTTATTGTGTGCGCATTAATACATACATA [GTGCAC_site9982]	8.95 ± 0.41
TAATGTTGAGAATTTTGTACATATAGATCAATTTAT [XGTACX_site5426]	7.62 ± 0.49
ATTTATTATGAACATACACACAAAAAAAAAAAGTAT [CACACA_site2054]	7.76 ± 0.73
TAACTTTGAAAAGATGGTACACAATAATATATATAT [XGTACX_site8667]	8.9 ± 0.2
TAATAATAAAAATAAACACACATATAGATGTATATA [CACACA_site7360]	7.44 ± 0.48
ATTTTGTTCGAAAGGTGTACATATACAAAAATTATG [XGTACX_site957]	8.3 ± 0.47
ATTGCTTTTCTTTTTGCACACTTATGCATATATATA [CACACA_site2584]	10.44 ± 0.064
CACTTTTCATATATGACACACAAAAAATTAATAAAA [CACACA_site3639]	8.07 ± 0.32
